Measurements: PubChem BioAssay AID686978 (National Center for Advancing Translational Sciences (NCATS), 2013)
Where “and” joins values, the source holds several entries; their conditions need not be identical. Equal values may be shown once. Among all 420,000 compounds or so, about 64,000 (15%) were called active. Inconclusive results, whose numbers are uncertain, are shown with a selection of clear calls. Calls come from the whole dose curve; as a rule, active = well fitted inhibition curve with a large enough effect; inconclusive = small, poorly fitted or top-dose-only effect; inactive = flat fitted curve, though single readings scatter. Potencies beside an inconclusive call are fits to weak or partial responses and may not hold up.

Experiment: qHTS for Inhibitors of human tyrosyl-DNA phosphodiesterase 1 (TDP1): qHTS in cells in absence of CPT; note: nearly all actives have a fitted effect of over 55% in size
Conditions: DT40 Tdp1-/- hTDP1 cells, no CPT, ATP luminescence, 48 h; activity change, negative = growth inhibition: at 46.2 µM (top of the series)
Outline: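 Growth kinetics read by CellTiter-Glo luminescence after ≥48 hr at 37 °C. Cells: DT40 Tdp1-/- stably carrying human TDP1, 400 per well, compound exposure in the absence of CPT (DMSO vehicle).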
% is set by controls: 0 for no effect and ±100 for the full control effect; potency is the fitted concentration of half-maximal effect; tags give direction and shape of the fitted curve.

Row | Compound | Potency | activity change, negative = growth inhibition
1 | CCc1nc2ccc(C(=O)NCCOc3ccc(OC)cc3)cn2c1N(CC)CCOC | inconclusive: 23.1 µM [inhibitor, single point] | –
2 | O=C(Cn1cnc2c(nc3n2CCCCC3)c1=O)Nc1ccc(F)c(Cl)c1 | – | inactive: -17.9%
3 | COc1ccc(CCNC(=O)C(C(=O)c2ccccc2)n2cc(Cl)ccc2=O)cc1OC (stereo not drawn) | – | inactive: -20.8%
4 | Cc1cc2occ(CC(=O)N(CC(C)C)c3c(N)n(Cc4ccccc4)c(=O)[nH]c3=O)c2cc1C | – | inconclusive: -38.7% [inhibitor]
5 | COc1ccc(CN(Cc2ccccn2)C(=O)CN2C(=O)COc3ccccc32)cc1 | inconclusive: 29.1 µM [inhibitor, single point] | –
6 | O=C(COc1ccc2ccccc2c1)NCCn1ccc2ccccc21 | active: 20.6 µM | –
7 | CCOC(=O)C1CCC(CN(Cc2ccc(OC)cc2)S(=O)(=O)c2ccc(F)c(C(=O)Nc3c(C)cccc3C)c2)CC1 (stereo not drawn) | inconclusive: 2.31 µM [inhibitor, full curve] | –
8 | O=C(Nc1cccc(Cl)c1)C1CCCN(c2ncnc3c2nc2n3CCCCC2)C1 (stereo not drawn) | inconclusive: 29.1 µM [inhibitor, single point] | –
9 | CC(C(=O)c1ccccc1)C(O)c1ccccn1 (stereo not drawn) | – | inconclusive: -42.5% [inhibitor]
10 | CC(C)c1ccc(NC(=O)N2CCC(c3nc4ccccc4o3)CC2)cc1 | active: 18.4 µM | –
11 | CCOC(=O)C1=C(CCc2ccccc2)NC(=O)NC1c1ccc(C#N)cc1 (stereo not drawn) | inconclusive: 23.1 µM [inhibitor, single point] | –
12 | CCC(NC(=S)NCc1ccc(F)cc1)c1ccc(C)cc1 (stereo not drawn) | inconclusive: 29.1 µM [inhibitor, single point] | –
13 | O=C1/C(=C/c2ccccc2)CCCc2ccccc21 | inconclusive: 29.1 µM [inhibitor, single point] | –
14 | Cc1ccccc1N1CCN(S(=O)(=O)c2ccc3ccccc3c2)CC1 | inconclusive: 29.1 µM [inhibitor, partial curve, poor fit] | –
15 | CCOc1ccccc1N(CC(=O)Nc1ccc(S(=O)(=O)N2CCCC2)cc1)S(C)(=O)=O | inconclusive: 18.4 µM [inhibitor, single point] | –
16 | Cc1cc(CNC(=O)CC2C(=O)NCCN2Cc2ccc(-c3ccccc3)cc2)nn1C (stereo not drawn) | inconclusive: 29.1 µM [inhibitor, partial curve, poor fit] | –
17 | COc1ccc(N2CC(NC(=O)C3CCCC3)CC2=O)cc1OC (stereo not drawn) | – | inactive: -2.97%
18 | Cc1cc(C(=O)N2CCN(S(=O)(=O)c3ccccc3F)CC2)c(C)o1 | inconclusive: 29.1 µM [inhibitor, single point] | –
19 | COc1ccc(S(=O)(=O)N(C(C)=O)c2ccc3oc(=O)sc3c2)cc1 | inconclusive: 29.1 µM [inhibitor, single point] | –
20 | C/C(=N\NC(=O)c1ccc(C)cc1)C1C(=O)c2ccccc2C1=O | inconclusive: 29.1 µM [inhibitor, single point] | –
21 | C=CCN1c2ccccc2[C@]23C[C@@H](C(=O)OC)N(C(=O)C4CCC4)C2=NC(C(=O)OC)=C(C(=O)OC)[C@H]13 | inconclusive: 18.4 µM [inhibitor, single point] | –
22 | COc1ccc(CNc2nc(SCc3ccccc3Cl)nc3ccccc23)cc1 | active: 16.4 µM | –
23 | CCCN1Cc2cccc(C(=O)N3CCN(c4cc(Cl)ccc4C)CC3)c2C1=O | active: 13 µM | –

Row | Compound | Potency | activity change, negative = growth inhibition
24 | C/C(=N\Nc1nncc2ccccc12)c1ccc(O)cc1 | – | inactive: -15.3%
25 | CC(C)(C)NC(=O)C(c1ccco1)N(Cc1ccc(F)cc1)C(=O)c1snc(C(N)=O)c1N (stereo not drawn) | – | inactive: -3.28%
26 | O=C(N/N=C/c1ccccc1)c1cccc2ccccc12 | active: 1.3 µM | –
27 | O=C(Cc1cccc2ccccc12)N/N=C1\CCCc2ccccc21 | active: 16.4 µM | –
28 | CCN(CC)C(=O)N1c2ccccc2Sc2ccccc21 | inconclusive: 20.6 µM [inhibitor, single point] | –
29 | CC1CCCN(S(=O)(=O)c2cc3c4c(c2)CC(=O)N4CCC3)C1 (stereo not drawn) | – | inactive: -25.2%
30 | Cc1ccc(-c2nn(C)c(=O)c3ccccc23)cc1CNC(=O)c1ccccc1 | inconclusive: 18.4 µM [inhibitor, single point] | –
31 | CN(C)/C=C1\C(=O)ON=C1c1ccccc1 | – | inactive: -8.88%
32 | COc1ccc(CCNC(=O)c2cn(C)c3ccc(S(=O)(=O)N(C)C)cc3c2=O)cc1OC | inconclusive: 16.4 µM [inhibitor, partial curve] | –
33 | CC(OC(=O)CCN=C1NS(=O)(=O)c2ccccc21)C(=O)N(C)C1CCCCC1 (stereo not drawn) | inconclusive: 29.1 µM [inhibitor, single point] | –
34 | CCOC(=O)N1CCC(NC(=O)C2CCCN(Cc3nc(-c4cccc(C)c4)oc3C)C2)CC1 (stereo not drawn) | active: 2.59 µM | –
35 | O=C1Nc2ccccc2CCC1Sc1nnc(-c2ccc(Cl)cc2)s1 (stereo not drawn) | active: 29.1 µM | –
36 | COc1ccc(NC(=O)C2CCC(CNc3c(N4CCCCC4)c(=O)c3=O)CC2)cc1OC (stereo not drawn) | inactive | –
37 | Cc1c(C)c2ccc(OC(C)C(=O)NCCc3c[nH]c4ccccc34)cc2oc1=O (stereo not drawn) | inconclusive: 23.1 µM [inhibitor, single point] | –
38 | CCOC(=O)N1CCN(C(=O)C(NS(=O)(=O)c2cccc3nsnc23)c2ccccc2)CC1 (stereo not drawn) | inconclusive: 1.46 µM [inhibitor, partial curve, poor fit] | –
39 | O=C(NCCc1ccc(F)cc1)c1ccc2nccnc2c1 | inconclusive: 13 µM [inhibitor, partial curve] | –
40 | Cc1noc(C)c1CSCC(=O)Nc1cc(S(C)(=O)=O)ccc1Cl | – | inactive: -6.38%
41 | O=C(CNC(=O)c1nc[nH]c1C(=O)N1CCc2ccccc2C1)OCc1ccccc1 | – | inactive: -24.4%
42 | COC(=O)c1ccc(NC(=O)CCc2c(C)nn(-c3ccc(N4CCOCC4)nn3)c2C)cc1 | – | inactive: -28.4%
43 | N#CC1=C(N)Oc2n[nH]c(-c3cccs3)c2C1C1CCCCC1 (stereo not drawn) | inconclusive: 20.6 µM [inhibitor, single point] | –
44 | O=C(Nc1ccc(F)cc1)c1ccc(Cn2nc(N3CCN(c4ccccc4)CC3)ccc2=O)o1 | inconclusive: 20.6 µM [inhibitor, single point] | –
45 | COc1ccc(C2C(C(C)=O)=C(C)N=c3s/c(=C\c4cc(C)n(C)c4C)c(=O)n32)c(OC)c1 (stereo not drawn) | inconclusive: 29.1 µM [inhibitor, single point] | –
46 | CC1Cc2ccccc2N1Cc1ccc([N+](=O)[O-])cc1 (stereo not drawn) | – | inactive: -22.1%

Row | Compound | Potency | activity change, negative = growth inhibition
47 | O=C(CN1CCN(C(=O)N2CCCCC2)CC1)Nc1ccc(F)cc1 | – | inactive: -4.65%
48 | CCC(C)(C)n1nnnc1C(c1cc2ccc(OC)cc2[nH]c1=O)N1CCc2ccccc2C1 (stereo not drawn) | inconclusive: 25.9 µM [inhibitor, single point] | –
49 | COc1ccc(NC(=S)NCC(c2ccco2)N2CCCC2)cc1 (stereo not drawn) | – | inactive: -18%
50 | CCc1cccc(NC(=O)C2CCCN2S(=O)(=O)c2ccc3c(c2)CC(C)N3C(C)=O)c1 (stereo not drawn) | active: 11.6 µM | –
51 | COC(=O)c1cc(S(=O)(=O)NCCc2ccc(C)cc2)c[nH]1 | inconclusive: 13 µM [inhibitor, partial curve, poor fit] | –
52 | O=c1c2ccc(Cl)cc2nc2n1CC/C2=C\c1cccc(O)c1 | inconclusive: 18.4 µM [inhibitor, single point] | –
53 | O=C(Nc1ccc(F)cc1)c1ccccc1NS(=O)(=O)N1CCCC1 | inconclusive: 14.6 µM [inhibitor, single point] | –
54 | CCOC(=O)c1c(C)[nH]c(C)c1S(=O)(=O)N1CCC(C(=O)N2CCN(c3cccc(C)c3C)CC2)CC1 | inconclusive: 29.1 µM [inhibitor, single point] | –
55 | COc1ccc(-c2cccc(NC(=O)c3cccs3)c2)nn1 | inconclusive: 23.1 µM [inhibitor, single point] | –
56 | CCOc1cc(C(=S)N2CCCC2)ccc1OC | – | inactive: 7.85%
57 | O=C(CN1c2ccccc2Sc2ccccc21)N/N=C/c1ccc(Cl)cc1 | inconclusive: 29.1 µM [inhibitor, single point] | –
58 | Cc1ccc(-n2nc3c(=O)n(CC(=O)NCc4ccc(C)o4)nc(C)c3c2C)cc1 | inconclusive: 32.6 µM [inhibitor, single point] | –
59 | Cc1ccc(SC(C)c2nc(-c3ccncc3)no2)cc1 (stereo not drawn) | inconclusive: 20.6 µM [inhibitor, single point] | –
60 | Cc1ccc(O)c(-c2cc(-c3ccccc3[N+](=O)[O-])[nH]n2)c1 | – | inactive: -14.4%
61 | CCc1ccc2cc3c(cc2n1)C(=O)c1ccccc1-3 | inconclusive: 23.1 µM [inhibitor, single point] | –
62 | O=[N+]([O-])CC(c1ccc(F)cc1)c1c[nH]c2ccccc12 (stereo not drawn) | active: 6.51 µM | –
63 | COc1ccc(CCNc2nc(-c3ccc(Cl)cc3)cc(C(F)(F)F)n2)cc1OC | active: 25.9 µM | –
64 | COc1cccc(-c2cc(C(=O)N3CCN(c4ccccc4OC)CC3)no2)c1 | inconclusive: 13 µM [inhibitor, partial curve] and inconclusive: 29.1 µM [inhibitor, single point] | –
65 | Cc1ccc(OCCNC(=O)c2ccccc2O)cc1 | inconclusive: 23.1 µM [inhibitor, single point] | –
66 | CCc1ccccc1OCC(=O)NC1CCCC1 | inconclusive: 18.4 µM [inhibitor, partial curve, poor fit] | –
67 | COC(=O)Cn1c(C(=O)N(C)C)cc2c1C[C@H]1CN(C(=O)c3ccccc3)[C@@](Cc3ccc(F)cc3)(C(=O)OC)[C@@H]21 | inconclusive: 23.1 µM [inhibitor, partial curve] | –
68 | O=C1c2ccccc2C(=O)N1CCCc1cn(C[C@H]2CC[C@H](Cn3cc(CCCN4C(=O)c5ccccc5C4=O)nn3)O2)nn1 | inconclusive: 14.6 µM [inhibitor, single point] | –
